{"source": "PubChem BioAssay AID588591", "about": "(National Center for Advancing Translational Sciences (NCATS), 2011)", "note": "Among all 390,000 compounds or so, about 4,700 (1.2%) were called active. Inconclusive results, whose numbers are uncertain, are shown with a selection of clear calls. Calls follow the shape of the dose curve; as a rule, active = well fitted inhibition curve with a large enough effect; inconclusive = small, poorly fitted or top-dose-only effect, or another doubt; inactive = no such curve, though single readings can be large or run the other way. Potencies beside an inconclusive call are fits to weak or partial responses and may not hold up. % is scaled to controls: 0 for no effect and ±100 for the full control effect; potency is read from the fitted curve at half-maximal effect; tags tell the direction and shape of the fitted curve."}
{"target": "DNA polymerase eta (Homo sapiens) (UniProt Q9Y253)", "sequence (Q9Y253 whole entry, looked up)": "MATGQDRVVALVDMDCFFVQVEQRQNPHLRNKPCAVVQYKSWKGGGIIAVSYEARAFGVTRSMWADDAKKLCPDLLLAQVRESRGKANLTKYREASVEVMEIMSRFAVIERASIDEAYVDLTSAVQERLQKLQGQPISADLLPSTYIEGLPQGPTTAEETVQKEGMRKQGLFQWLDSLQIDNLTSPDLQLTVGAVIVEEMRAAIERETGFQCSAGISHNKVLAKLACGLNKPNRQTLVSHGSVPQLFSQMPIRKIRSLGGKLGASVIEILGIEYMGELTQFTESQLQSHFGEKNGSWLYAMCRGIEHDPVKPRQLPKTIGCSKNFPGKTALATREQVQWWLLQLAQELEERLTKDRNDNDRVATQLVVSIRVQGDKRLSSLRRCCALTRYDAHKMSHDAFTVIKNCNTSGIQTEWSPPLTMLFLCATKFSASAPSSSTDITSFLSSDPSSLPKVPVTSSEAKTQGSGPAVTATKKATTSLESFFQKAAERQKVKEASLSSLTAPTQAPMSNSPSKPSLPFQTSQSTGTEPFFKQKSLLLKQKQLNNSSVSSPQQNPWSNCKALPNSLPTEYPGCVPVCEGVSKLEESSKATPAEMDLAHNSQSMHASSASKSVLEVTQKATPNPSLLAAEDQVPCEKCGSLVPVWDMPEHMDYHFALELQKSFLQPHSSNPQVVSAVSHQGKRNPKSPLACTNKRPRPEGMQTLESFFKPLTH", "assay": "qHTS for Inhibitors of Polymerase Eta", "settings": "recombinant Pol eta, fluorescent DNA replication assay; series mostly up to 114 µM; activity change, negative = inhibition: at the top concentration", "how_it_was_run": "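Pol eta (10 nM) was preincubated with compounds for 15 min at room temperature, after which fluorescent replication substrate (50 nM final) was added to start the reaction. Fluorescence was read kinetically at 0 and 10 min.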"}
{"compound": "CCN(c1ccccc1)c1nnc(NC(=O)Nc2ccc(C)cc2)s1", "activity change, negative = inhibition": "inactive: -14.5%"}
{"compound": "Cc1ccc(NC(=O)C(C)c2cccc(C(=O)c3ccccc3)c2)cc1O", "note": "(stereo not drawn)", "Potency": "inconclusive: 79.4 µM [inhibitor, partial curve, poor fit]"}
{"compound": "Cc1ccc2nc(Cl)c3cc(C(=O)N(CCN(C)C)Cc4ccco4)sc3c2c1", "Potency": "inconclusive: 25.1 µM [inhibitor, single point]"}
{"compound": "CCc1ccccc1Nc1nn2c(=O)c3ccc(C(=O)NC4CCCCC4)cc3nc2s1", "Potency": "inconclusive: 89.1 µM [inhibitor, single point]"}
{"compound": "O=c1c2cc(N3CCOCC3)ccc2[nH]c(=S)n1Cc1ccc(Cl)cc1", "activity change, negative = inhibition": "inactive: -5.8%"}
{"compound": "O=C(O)CCCN1C(=O)/C(=C/c2ccc(-c3nc4ccccc4s3)o2)SC1=S", "Potency": "active: 3.16 µM"}
{"compound": "CCN(c1ccccc1)S(=O)(=O)c1ccc(N2CCN(c3ccc(O)cc3)CC2)nc1", "activity change, negative = inhibition": "inactive: -24.2%"}
{"compound": "O=C1OC(c2cccs2)=N/C1=C\\c1ccc(-c2cccc(Cl)c2)o1", "Potency": "inconclusive: 100 µM [inhibitor, single point]"}
{"compound": "O=[N+]([O-])c1ccc(C=Nc2ccc(Cl)cc2Cl)s1", "Potency": "active: 89.1 µM"}
{"compound": "CCc1cc2c(-c3ccccc3)cc(=O)oc2cc1OC(C)C(C)=O", "note": "(stereo not drawn)", "activity change, negative = inhibition": "inactive: -16.2%"}
{"compound": "Cc1cc(=O)n2nc(N(C)CC(=O)NCc3ccc(Cl)cc3)sc2n1", "activity change, negative = inhibition": "inactive: 2.81%"}
{"compound": "Cc1ccc(C2/C(=C(/O)c3ccc(Br)cc3)C(=O)C(=O)N2Cc2ccco2)o1", "note": "(stereo not drawn)", "Potency": "inconclusive: 31.6 µM [inhibitor, single point]"}
{"compound": "Cc1ccccc1Nc1nc(N)nc(COC(=O)C2CCCCC2)n1", "Potency": "inconclusive: 79.4 µM [inhibitor, partial curve, poor fit]"}
{"compound": "O=C(COC(=O)Cc1ccc(Cl)cc1)NCc1ccc(F)cc1", "Potency": "inconclusive: 100 µM [inhibitor, partial curve, poor fit]"}
{"compound": "CC1CCCCC1NC(=O)c1cc2ccccc2o1", "note": "(stereo not drawn)", "Potency": "inconclusive: 25.1 µM [inhibitor, partial curve, poor fit]"}
{"compound": "Cc1ccc(O)c(-c2n[nH]c3c2C(c2ccccc2F)N(Cc2ccco2)C3=O)c1", "note": "(stereo not drawn)", "Potency": "inconclusive: 50.1 µM [inhibitor, partial curve, poor fit]"}
{"compound": "O=C(CN1C(=O)S/C(=C\\c2cccs2)C1=O)Nc1ccc(C(=O)O)c(O)c1", "Potency": "inconclusive: 79.4 µM [inhibitor, partial curve, poor fit]"}
{"compound": "CCn1nc([N+](=O)[O-])c2c(-c3nc4ccccc4o3)c(N)n(CCCOC)c2c1=O", "Potency": "inconclusive: 50.1 µM [inhibitor, partial curve, poor fit]"}
{"compound": "Cc1cc(C)c(S(=O)(=O)Oc2ccccc2[N+](=O)[O-])c(C)c1", "Potency": "inconclusive: 56.2 µM [inhibitor, partial curve]"}
{"compound": "O=C(COC(=O)Cc1n[nH]c(=O)c2ccccc12)NNC(=O)c1ccc(Cl)cc1", "Potency": "inconclusive: 17.8 µM [inhibitor, partial curve, poor fit]"}
{"compound": "Cc1ccc(-c2nc3ncccc3o2)cc1NC(=O)c1cc2ccccc2o1", "Potency": "inconclusive: 28.2 µM [inhibitor, partial curve, poor fit]"}
{"compound": "O=C1/C(=C/c2ccc(C(=O)O)cc2)CCC/C1=C\\c1ccc(C(=O)O)cc1", "Potency": "active: 8.91 µM"}
{"compound": "O=C1CN(C(=O)/C=C/c2ccco2)c2ccccc2N1", "Potency": "inconclusive: 89.1 µM [inhibitor, single point]"}
{"compound": "CN(C)CCOC1(Cc2ccc(F)cc2)CCC(C(C)(C)C)CC1", "note": "(stereo not drawn)", "Potency": "inconclusive: 20 µM [inhibitor, partial curve, poor fit]"}
{"compound": "COC(c1ccccc1)c1nnc(CCC(=O)N(C)Cc2cccc(-n3cccn3)c2)o1", "note": "(stereo not drawn)", "Potency": "inconclusive: 100 µM [inhibitor, partial curve, poor fit]"}
{"compound": "O=C(O)c1ccc(N=Nc2c(O)ccc3ncccc23)cc1", "Potency": "active: 2.82 µM"}
{"compound": "C=C(C)C(=O)N1CC2(CC(c3cccc(NC(=O)/C=C\\C=C/C)c3)=NO2)C[C@H]1C(N)=O", "note": "(stereo partly drawn)", "Potency": "active: 12.6 µM"}
{"compound": "ON=C1/C(=N\\O)CC2(C/C1=N/O)OCCO2", "Potency": "active: 56.2 µM"}
{"compound": "CCN1C(=O)[C@H]2[C@@H](c3ccc(-c4ccc(C(C)=O)cc4)cc3)N3CCC[C@@]3(C(=O)OC)[C@H]2C1=O", "Potency": "inconclusive: 63.1 µM [inhibitor, partial curve, poor fit]"}
{"compound": "Cc1nn(C)cc1/C=C/C(=O)c1ccc(O)cc1", "activity change, negative = inhibition": "inactive: -3.08%"}
{"compound": "CCOC(=O)c1cc(NC(=O)CSc2nnc(CN3CCOCC3)n2C)ccc1Cl", "Potency": "inconclusive: 12.6 µM [inhibitor, partial curve, poor fit]"}
{"compound": "O=C(Nc1ccc2[nH]c(=O)[nH]c2c1)c1ccc([N+](=O)[O-])o1", "Potency": "active: 56.2 µM"}
{"compound": "CCc1sc(C(=O)Nc2ccc(N3CCOCC3)cc2)cc1C", "activity change, negative = inhibition": "inactive: -20.1%"}
{"compound": "CN(CC(=O)Nc1cccc(F)c1)CC(=O)Nc1cccc(S(=O)(=O)N2CCCCC2)c1", "Potency": "inconclusive: 50.1 µM [inhibitor, partial curve, poor fit]"}
{"compound": "COc1ccc(NC(=O)c2sc3nc[nH]c(=O)c3c2C)cc1OC", "activity change, negative = inhibition": "inactive: 2.23%"}
{"compound": "COc1ccc(CNC(c2ccccc2)c2ccc(Cl)cc2)cc1", "note": "(stereo not drawn)", "Potency": "inconclusive: 79.4 µM [inhibitor, partial curve, poor fit]"}
{"compound": "CCN(CC)c1ccc(NC(=O)Cn2c(C(C)NC(=O)c3ccccc3)nc3ccccc32)cc1", "note": "(stereo not drawn)", "Potency": "inconclusive: 10 µM [inhibitor, partial curve]"}
{"compound": "Cc1cc(O)ccc1C1(c2ccc(O)cc2C)OC(=O)c2ccccc21", "Potency": "inconclusive: 44.7 µM [inhibitor, partial curve, poor fit]"}
{"compound": "O=C(/C=C/c1ccccc1)Nc1cc(NC(=O)/C=C/c2ccccc2)cc(C(=O)O)c1", "Potency": "active: 50.1 µM"}
{"compound": "Cc1ccc(CSc2nc3c(c(=O)[nH]2)C(c2cccc(F)c2F)CC(=O)N3)cc1", "note": "(stereo not drawn)", "activity change, negative = inhibition": "inactive: -4.76%"}
{"compound": "CC(C)c1nc(SCC(=O)N2CCCC2)c2ccccc2n1", "activity change, negative = inhibition": "inactive: -0.347%"}
{"compound": "O=C(O)CN1C(=O)/C(=C\\c2ccccc2OCc2ccc(F)cc2)SC1=S", "Potency": "inconclusive: 89.1 µM [inhibitor, single point]"}
{"compound": "CCOc1cc(/C=C2/C(=O)N(c3ccccc3)N=C2C)ccc1OC(=O)c1ccco1", "activity change, negative = inhibition": "inactive: -18.6%"}
